The record followed here is paper PMC10726135.

The list shows a part of the results. At the low end of the ranking, values are background and their order means little. Measured with an extract: partners may take part in the binding.

The target of the test is T1, HNF4alpha8 (COS-7 nuclear extract) (UniProt P41235-5).
T1 sequence: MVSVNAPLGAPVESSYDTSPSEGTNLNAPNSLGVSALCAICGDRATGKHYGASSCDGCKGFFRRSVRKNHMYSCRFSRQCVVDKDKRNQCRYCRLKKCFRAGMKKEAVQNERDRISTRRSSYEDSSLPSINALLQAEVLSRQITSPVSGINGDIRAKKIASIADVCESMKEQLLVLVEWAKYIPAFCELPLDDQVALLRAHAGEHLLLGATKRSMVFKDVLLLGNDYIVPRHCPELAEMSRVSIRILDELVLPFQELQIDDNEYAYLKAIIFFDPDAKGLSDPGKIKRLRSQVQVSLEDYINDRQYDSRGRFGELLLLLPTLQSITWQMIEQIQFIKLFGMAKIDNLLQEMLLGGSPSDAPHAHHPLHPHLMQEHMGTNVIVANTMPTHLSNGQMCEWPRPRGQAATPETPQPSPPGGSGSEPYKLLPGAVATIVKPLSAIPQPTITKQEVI
Nature of the test: protein-binding microarray. The conditions noted are these: COS-7 nuclear extract on double-stranded Agilent 4x180k PBM; binding buffer, salt, pH and temperature not given; high values mean tight binding; double strand, one strand shown; sequences stand for … in …GCCTAGGGAGATTAGAGTATCGGTCGA
Turning to ATGGCAGACGGGGCTCTCAGAATCTGCCGA, the binding signal (log2 normalized intensity) is -0.908. Regarding TGGCCAGTATCCGCCTTCACTCCCCTGACA, the binding signal (log2 normalized intensity) is 1.92. For TTCCTTCGGGATTATGGTAGGCAGCCTCTG, the binding signal (log2 normalized intensity) was -1.28. For the sequence GAGAGAAATTGCTTAAGTGCTTGTCAGTTT, the binding signal (log2 normalized intensity) worked out at 1.16. In the case of AGATGGGGTGAACTTTGGACCACATATAGA, the binding signal (log2 normalized intensity) came out at 7.98. For the sequence AATTGTGTGGTTATCTGTTGGGGAATCAGT, the binding signal (log2 normalized intensity) was determined as 1.45. Regarding GCACAAAGTACAAAAGAGGCTTCCTGGGCC, the binding signal (log2 normalized intensity) is -1.14. Turning to AAACAAATAATGGCTTTTGCCCTCAAGGAG, the binding signal (log2 normalized intensity) worked out at 2.02.

Turning to CTAGGTCAGCAGTTGTTCAAAGTCCATGTG, the binding signal (log2 normalized intensity) is 5.98.

Turning to GGTCCACAGCTTTGGGCATACAAAACAACC, the binding signal (log2 normalized intensity) is -1.22. For the sequence CCTAGCTGAGCAGGGGACTAAGAGCAGCCT, the binding signal (log2 normalized intensity) is -1.1. Regarding AGACTGGCTCCGCTGCTGCAGAGCAAAGCT, the binding signal (log2 normalized intensity) is -1.39. The same measure for GAGCACAAGAACAAAAACTGTTTCTATGTG: -1.22. For ACACACAGCACTGCAAACAGTGAGCCCAGT, the binding signal (log2 normalized intensity) was -1.23. As for AAGGTCAGCGCTTTGGTAGGCTGTATGGCT, the binding signal (log2 normalized intensity) is -1.2.

As to TTGAAGTGCTTCCTGTGTATTTCTTCATCA, the binding signal (log2 normalized intensity) is 0.924. Turning to AAGCTATCCCTCCATATTGCAGACAGCATA, the binding signal (log2 normalized intensity) was -1.03.

Take TCTGAGTAAACACAGACTTTGGAATCACAA: the binding signal (log2 normalized intensity) came out at 3.77.

As to GTTAGACGCACGGCAGAGCACCTGGATAAG, the binding signal (log2 normalized intensity) was -1.3. For the sequence AACTATGCTAAGAATGCGAACCATTTCCCA, the binding signal (log2 normalized intensity) was -1.32. Turning to GGCTAATGCATGTCCCTCCTCAACCTCTCC, the binding signal (log2 normalized intensity) was found to be 1.05.

For the sequence AAGCACTGAGCATACAGAACCCATGCTCTT, the binding signal (log2 normalized intensity) was -1.24.

For TCACAAGACTGTTATCACAGCTGGCCCACT, the binding signal (log2 normalized intensity) is -1.22. The same measure for AGGTCCTTGAAAGTAAGCAGACACTGAAAG: -1.28; for CATCTGCAAGAGAGAATAGATAGTGTGAGG: 0.532; for GGGTCATGCTGGTCTCCTTGCCCCACCCCC: 5.73.

Take CGTCTTACATTTCTAAAGAACATTCCAGCT: the binding signal (log2 normalized intensity) is -1.35. On to TGTGACTGATAAATCCCGAGCCAGAGCCAA, for which the binding signal (log2 normalized intensity) is -1.44.

As for GTGCTCTGGGTCTGTCCTTTGTGTTTATGG, the binding signal (log2 normalized intensity) is 2.63. Turning to CACTGGCCAAAGGTAATAGGAAAAGGGAGT, the binding signal (log2 normalized intensity) is -1.29.

In the case of AGCTAGTAGGAGCGGGCTTAACTAGGAGCC, the binding signal (log2 normalized intensity) is -1.39.

As for TATCTTTCTCCTACAGCCTGATGTTGACAG, the binding signal (log2 normalized intensity) was determined as 0.0465. In the case of CGTCCTGTGGCAAAGGTGAATGACCCCTCC, the binding signal (log2 normalized intensity) was determined as 5.34. On to GAGCTGAAACAGTCTGATTCTAGGGCCCAT, for which the binding signal (log2 normalized intensity) is -1.35.

Regarding AAATCCCCCACCATTGTTATCTGATCAAAT, the binding signal (log2 normalized intensity) was 3.42. CTGCCTCAAACAGCTTCGCCTCCTCCAAGC: the binding signal (log2 normalized intensity) is -1.28.

For the sequence CTATTAGGTCTTTGAAGTTGTCTTATCACC, the binding signal (log2 normalized intensity) turned out to be 1.2.

For ACAATGTGATTTATGAAGGGGGGTGGGGAG, the binding signal (log2 normalized intensity) is -1.36. Regarding CAGACTGCATTTTCATCTTGCCTTTGCTCC, the binding signal (log2 normalized intensity) was 1.4.

Regarding TTAGGAAAGAGACATCTGGGAACAAGTTCT, the binding signal (log2 normalized intensity) is -1.25. The value for AAAGGAGGCAGAGACTGCCCTGAGCCGCCA was -1.25. The value for AATGCAGGCAATGAATAGAACAAATAAAGT was -1.38; that for TTTATCTACCTTTGTACCTTTAGTATCTAG was 3.32; that for AGTTTCAGGTTCAAATCTAAACCTAGCAGC was -1.31. For the sequence GTTTCAGCCCTAAAGACCACTGGGCTTTCA, the binding signal (log2 normalized intensity) is -1.32. AGTTTGGGCTGTGAGAAACATCCTGCCTAA: the binding signal (log2 normalized intensity) is -1.31. As to CCTGGGTTAAAGTCCGTTACAGACAGGCAG, the binding signal (log2 normalized intensity) is 3.95. The same measure for GTTAACAGAATGAACAGCTCTTCTTGCCAG: -1.23; for TTGGACAGGGTGACGTCATTGGAAATCCGA: 0.187. With ACTGATCTCTGGCTTGATCCCTGAACTTTG, the binding signal (log2 normalized intensity) amounted to 4.37.

With CAGCACCATCCTACAGGGTATGAATTTAAC, the binding signal (log2 normalized intensity) is -0.872.

Regarding AGTCAAGGCCAAAGGTTAAAAATAAGTTCT, the binding signal (log2 normalized intensity) stood at 4.29. As for CCAATAACTGCTTCTTTTATGGTGCATTCC, the binding signal (log2 normalized intensity) was determined as 1.53. As to GAATCAGGTTTTCAGAAGGTAGGTAAGGGG, the binding signal (log2 normalized intensity) is -0.7. On to CCAAAGTCCTTCCCAAGTCCTGCATGTGTT, for which the binding signal (log2 normalized intensity) was 1.72.

As to AGGGAGGGCCAAGCCCTCCATCCAACCATT, the binding signal (log2 normalized intensity) came to 3.94. Turning to GAGGGGAGGAGGGTCAAAACTTCAGACTAT, the binding signal (log2 normalized intensity) is -0.34. The value for TAGATAAGTCCACAAAGATAAGAAAGAATC was -1.32; that for ATGGATGAATTTTATCACTCCATCAAGGGG was -1.28.

Take AGGCACACTCTATTATGTAAAACAGACAGG: the binding signal (log2 normalized intensity) was -0.412. Take AGCAATGCTGAGTATGCAGCGGGCAGCCCG: the binding signal (log2 normalized intensity) is -1.26. Regarding CATCCCCCCAAAGGCTCTCTGTTGACCACC, the binding signal (log2 normalized intensity) amounted to 3.84.

Consider GACTCCCCAGCAGGCAGACTGGCTCCGCTG, for which the binding signal (log2 normalized intensity) was -1.3. Consider TAAAATGGACTTTGTGGGCCAAAAGCAGCC, for which the binding signal (log2 normalized intensity) was 2.65.

For the sequence TAGCATTTTGCAGAGACGGCAAGCCATAGT, the binding signal (log2 normalized intensity) is -1.36. Regarding GAGACCAAATATTAGAACAAACGACGCTCC, the binding signal (log2 normalized intensity) was -1.32. For TAATCAACACTGACAGATTCCTGCTAACAG, the binding signal (log2 normalized intensity) is -1.28. TAAACTAAGATATTGGTAAGTTAAGTAACT: the binding signal (log2 normalized intensity) is -0.317. In the case of GGTTTGAATCCCGGGAATCCTCAGCCTTCT, the binding signal (log2 normalized intensity) was -1.31.

For the sequence AAGATGAAAGACGAAAGGGACTTTGATCTT, the binding signal (log2 normalized intensity) was 7.26. The value for GCCAGATTGAGAAACACATTCTTAGACAAC was -1.17; that for CCCAGAGGTCAAACTATCTGAGGTGGTCCA was 1.8; that for CTGGGGCCGGGAGCAGGGAGCGAGACGCTG was -1.34. With AAGGATTATTACATGTTTACCCACATACAA, the binding signal (log2 normalized intensity) is 0.38. Consider TTACTGGTGAACATAAATCGCAAATATTTA, for which the binding signal (log2 normalized intensity) was -1.22. AAAAGAAGAAAAAACAGGTGTTCTTTCCCT: the binding signal (log2 normalized intensity) is -1.29.

Take GCATGGTTTACTGAAATAGGTAAGCTGGCC: the binding signal (log2 normalized intensity) was 0.356.

For TGAGTGCTTCAGTCCAAAAAGTGGTGGTGT, the binding signal (log2 normalized intensity) was 1.37. For TGAAGCGACCCCTCGAGGCAACCTTTGACC, the binding signal (log2 normalized intensity) stood at 9.25. For the sequence TCCTGAGCAGTCCCTTCCCCCCTCCTCATT, the binding signal (log2 normalized intensity) was 4.55.

In the case of CAAGGAAAACTACACTCTTGCTAAACCCTC, the binding signal (log2 normalized intensity) was -1.38.

ACAGATGTAGACATTGGAATGCGGGCTCCA: the binding signal (log2 normalized intensity) was found to be 0.955.

Take ACCCACCCACACCTCCCCTTTGTTTAACTT: the binding signal (log2 normalized intensity) turned out to be 2.79.

Turning to ATAAAACACTGACATCATCGCAGAAAGCTC, the binding signal (log2 normalized intensity) is -1.28. Consider GTCCTGGCAGGCTTCGAAAAATGGGTCTGG, for which the binding signal (log2 normalized intensity) was -1.19. The same measure for ATTCTCCCTGCAGTCCTCTGCTTATCTGGC: 0.265; for GTCAGGAGTACAGGTAGGATCAAGGGTGGA: 0.29; for TTTTAAGTCACCAGATGAGATAGGAGGTCA: 2.27. As to AATGTGGGGAGCACATGGCATGATCCCTGA, the binding signal (log2 normalized intensity) was -0.163.

ACATGATAGGTTACCTTGACCAAAGTACAG: the binding signal (log2 normalized intensity) stood at 3.05. With GGATGGAATTTAAAACATCTTTGAAGAGCA, the binding signal (log2 normalized intensity) was -1.22. For the sequence GGAGTCTGGCTGCCCTGGGGTGACAGCTTT, the binding signal (log2 normalized intensity) was 0.341. On to GACTGTCTTAGGAAAGAACAGGTCAAAGGT, for which the binding signal (log2 normalized intensity) is 5.06.
